# In the supplement of paper PMC10600219:
# Where a name gives a salt, the structure may show the parent alone. Whole data set: some 2,800 compounds, median “cell viability relative to vehicle” near 1.1, cut for the lowest 2% near 0.19. The list shows a part of the results.
# Tested on: NCI-H2228 parental
# Experiment: cell viability relative to vehicle (fraction of vehicle); NCI-H2228 is an ALK-positive lung cancer line and DTP means drug-tolerant persister; higher = less growth inhibition
# Details: 100 nM; treatment time 6 days
# Procedure, shortened: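 The 3114-agent TargetMol anti-cancer compound library was tested at 100 nM for 6 days on parental NCI-H2228 cells and on persister cells derived with 1000 nM of a targeted drug for 13 days. ATP readout by the CellTiter-Glo 3D Cell Viability Assay gave cell viability relative to DMSO vehicle-treated cells.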
row,Structure (SMILES),cell viability
1,CCCCCC/C=C\CCCCCCCc1cccc(O)c1C(=O)O [Ginkgolic acid C15:1],1.17
2,N=C(N)N [Guanidine hydrochloride],1.13
3,C=C[C@H]1CN2CC[C@H]1C[C@@H]2[C@@H](O)c1ccnc2ccc(OC)cc12 [Quinidine hydrochloride],0.919
4,Cc1cn([C@H]2C[C@H](F)[C@@H](CO)O2)c(=O)[nH]c1=O [3'-Deoxy-3'-fluorothymidine],0.969
5,COc1cc(/C=C/C(=O)N2CCC=CC2=O)cc(OC)c1OC [Piperlongumine],1
6,CN1C(C(=O)Nc2ccccn2)=C(O)c2sccc2S1(=O)=O [Tenoxicam],1.16
7,N#Cc1ccc2[nH]cc(CCCCN3CCN(c4ccc5oc(C(N)=O)cc5c4)CC3)c2c1 [Vilazodone HCl],1.1
8,CCCOc1ccc2c(c1)CC[C@@H]1[C@@H]2CC[C@]2(C)[C@@H](OC)CC[C@@H]12 [Promestriene],1.33
9,Cn1cc(C(=O)Nc2ccc3c(c2)OCCO3)c2ccccc2c1=O,1.09
10,OCCNC1CCCc2c1[nH]c1ccc(-c3ccccc3)cc21 (stereo not drawn),1.1
11,FC(F)(F)c1ccc(CNc2ccc(Cc3c[nH]c4ncc(Cl)cc34)cn2)cn1 [Pexidartinib],1.27
12,O=C(Nc1ccccc1)c1ccccc1O [Salicylanilide],1.17
13,Cn1c(=O)c2[nH]cnc2n(C)c1=O [Aminophylline],1.13
14,CS(=O)(=O)c1ccc(C2=C(c3ccccc3)C(=O)OC2)cc1 [Rofecoxib],0.999
15,CC(=O)c1cc([N+](=O)[O-])c(Sc2cccc(Cl)c2Cl)s1,1.04
16,C#C[C@]1(O)CC[C@H]2[C@@H]3CCc4cc(OC5CCCC5)ccc4[C@H]3CC[C@@]21C [Quinestrol],1.15
17,CN(C)CCC=C1c2ccccc2CCc2ccccc21 [Amitriptyline hydrochloride],1.13
18,CCCNC(=O)[C@H]1O[C@@H]1C(=O)N[C@H](C(=O)N1CCC[C@H]1C(=O)OC)[C@@H](C)CC [CA-074 methyl ester],1.05
19,Cc1[nH]c(=O)c(C#N)cc1-c1ccncc1 [Milrinone],1.02
20,CC(C)[C@H](CO)Nc1nc(Nc2cccc(Cl)c2)c2ncn(C(C)C)c2n1 [Purvalanol A],1.09
21,COc1cc(Cc2cnc(N)nc2N)cc(OC)c1OC [Trimethoprim],0.914
22,COc1cc2c(cc1OC)CN(CCc1ccc(NC(=O)c3cc(OC)c(OC)cc3NC(=O)c3cnc4ccccc4c3)cc1)CC2 [Tariquidar],1.01
23,COc1ccc(S(=O)(=O)NCc2ccc(C(=O)NCCc3ccc(Cl)cn3)cc2)cc1,1.14
24,CN(C(=O)c1ccc(F)cc1C(F)(F)F)C1CCN(c2nnc(-c3ccnn3C)c3ccccc23)CC1 [Taladegib],0.997
25,C=C1C[C@@]23CC[C@H]4[C@@](C)(CCC[C@@]4(C)C(=O)O[C@@H]4O[C@H](CO)[C@@H](O)[C@H](O)[C@H]4O)[C@@H]2CC[C@]1(O[C@@H]1O[C@H](CO)[C@@H](O)[C@H](O)[C@H]1O[C@@H]1O[C@H](CO)[C@@H](O)[C@H](O)[C@H]1O)C3 [Stevioside],1.08
26,CCN(CC)CCOC(=O)C(c1ccccc1)C1CCCCC1 (stereo not drawn) [Drofenine hydrochloride],1.13

row,Structure (SMILES),cell viability
1,O=C1NCCSc2c1sc1ccc(O)cc21,1.05
2,Cc1cc(N2CCCCC2)nc2ccccc12,1.18
3,CC(C)(C)c1ccc(CN2CCN(C(c3ccccc3)c3ccc(Cl)cc3)CC2)cc1 (stereo not drawn) [Buclizine HCl],1.04
4,COc1cc2c(cc1OC)C(=O)C(CC1CCN(Cc3ccccc3)CC1)C2 (stereo not drawn) [Donepezil HCl],1.08
5,CNCC[C@H](Oc1cccc2ccccc12)c1cccs1 [Duloxetine hydrochloride],1.31
6,COc1ccc(S(=O)(=O)Nc2nc(-c3cccc([N+](=O)[O-])c3)cs2)cc1OC,1.04
7,C[C@@H](Oc1cc(-n2cnc3ccc(CN4CCN(C)CC4)cc32)sc1C(N)=O)c1ccccc1C(F)(F)F,0.156
8,COc1ccc2[nH]c(C(=O)N3CCC(CC(C)(C)O)CC3)cc2c1,1.18
9,COc1ccccc1-c1cc(Nc2cccc(CS(N)(=O)=O)c2)ncn1,1.22
10,CC1(COc2ccc3c(c2)ncn3-c2ccc3cccc(N4CCC(N)CC4)c3n2)COC1 [Crenolanib],1.05
11,CN(C)C(=O)COC(=O)Cc1ccc(OC(=O)c2ccc(NC(=N)N)cc2)cc1 [Camostat mesilate],0.829
12,C[C@@H]1CC[C@]2(C(=O)O)CC[C@]3(C)C(=CC[C@@H]4[C@@]5(C)CC[C@H](O)[C@@](C)(CO)[C@@H]5CC[C@]43C)[C@@H]2[C@]1(C)O [Rutundic acid],1
13,N=C(N)NC(=O)c1nc(Cl)c(N)nc1N [Amiloride hydrochloride],1.04
14,CCCC[S+]([O-])c1sc2nc(-c3cccs3)cc(-c3ccccc3)c2c1N (stereo not drawn),1.26
15,Nc1ccccc1NC(=O)c1ccc(CNC(=O)OCc2cccnc2)cc1 [Entinostat],0.786
16,c1ccc(CNc2ccccc2)cc1 [N-Phenylbenzylamine],1.16
17,COc1cc(O)c(CC=C(C)C)c2c1C(=O)CC(c1ccc(O)cc1)O2 (stereo not drawn) [Isoxanthohumol],1.04
18,CCC(=O)N1CCOc2c(cc(-c3ccc(OC)c(OC)c3)cc2OC[C@H]2CCCN(C)C2)C1 [I-CBP112 hydrochloride],0.999
19,O=[N+]([O-])c1ccc2c(c1)S(=O)(=O)C=C2 [Stattic],1.04
20,CC[C@H]1OC(=O)[C@H](C)[C@@H](O[C@H]2C[C@@](C)(OC)[C@@H](O)[C@H](C)O2)[C@H](C)[C@@H](O[C@@H]2O[C@H](C)C[C@H](N(C)C)[C@H]2O)[C@](C)(OC)C[C@@H](C)C(=O)[C@H](C)[C@@H](O)[C@]1(C)O [Clarithromycin],1.38
21,COc1ccc(-c2coc3cc(O[C@@H]4O[C@H](CO)[C@@H](O)[C@H](O)[C@H]4O)ccc3c2=O)cc1 [Ononin],1.02
22,CN(C)CC[C@H](CSc1ccccc1)Nc1ccc(S(=O)(=O)NC(=O)c2ccc(N3CCN(Cc4ccccc4-c4ccc(Cl)cc4)CC3)cc2)cc1[N+](=O)[O-],1.24
23,C[C@H]1COC2=C1C(=O)C(=O)c1c2ccc2c1CCCC2(C)C [Cryptotanshinone],0.906
24,NC(=O)Cc1cccc(C(=O)c2ccccc2)c1N [Nepafenac],1.14
25,CCCCC1=NC2(CCCC2)C(=O)N1Cc1ccc(-c2ccccc2-c2nnn[nH]2)cc1 [Irbesartan],0.998
26,O=C(Nc1cc(C(F)(F)F)ccc1O)Nc1cc(C(F)(F)F)ccc1O,1.03

row,Structure (SMILES),cell viability
1,O=C1N[C@@H](Cc2c[nH]c3ccccc23)C(=O)N2CCC[C@@H]12 [Brevianamide F],1.05
2,NC(=O)c1ncn([C@@H]2O[C@H](CO)[C@@H](O)[C@H]2O)n1 [Ribavirin],1.21
3,O=C(NCc1ccncc1)C12CC3CC(C1)CC(c1ccc(Cl)cc1)(C3)C2,1.05
4,CCOC(=O)[C@H](CCc1ccccc1)N[C@@H](C)C(=O)N1[C@H](C(=O)O)C[C@@H]2CCC[C@@H]21 [Ramipril],1.06
5,CCOc1ccc2c(c1)C(C)=CC(C)(C)N2 [Ethoxyquin],1.12
6,Cc1ccc(S(=O)(=O)n2c(N)nc3ccccc32)cc1,1.06
7,CNC(=O)c1ccc(-c2cnc3ncc(Cc4ccc5ncccc5c4)n3n2)cc1F [Capmatinib],1.05
8,CNC(=O)c1ccc(-c2cnc3ncc(Cc4ccc5ncccc5c4)n3n2)cc1F [Capmatinib 2HCl],1
9,NCC(=O)Nc1ccc(-n2nc(C(F)(F)F)cc2-c2ccc3c(ccc4ccccc43)c2)cc1,0.937
10,COc1ccc(-c2nc3cc(C4=NNC(=O)CC4C)ccc3[nH]2)cc1 (stereo not drawn) [Pimobendan],1.12
11,COc1ccc(-c2cnc3c(-c4cccc5ncccc45)cnn3c2)cc1,1.04
12,NS(=O)(=O)c1cc2c(cc1Cl)N=CNS2(=O)=O [Chlorothiazide],1.17
13,CNS(=O)(=O)Cc1ccc2[nH]cc(CCN(C)C)c2c1 [Sumatriptan succinate],0.997
14,O=c1c(O)c(-c2ccc(O)c(O)c2)oc2cc(O)ccc12 [Fisetin],1.08
15,O=C(COc1ccc(Cl)cc1)NC1CCC(NC(=O)COc2ccc(Cl)cc2)CC1 (stereo not drawn) [ISRIB (trans-isomer)],1.11
16,O=C(COc1ccc(Cl)cc1)NC1CCC(NC(=O)COc2ccc(Cl)cc2)CC1 (stereo not drawn),1.18
17,COc1cc2ncnc(Oc3cccc(NC(=O)Nc4cc(C(C)(C)C(F)(F)F)on4)c3)c2cc1OC,1.28
18,CCc1cc2c(=O)c(-c3nc4ccccc4s3)coc2c(CN2CCCCC2)c1O,1.06
19,Cc1cc(C2CCCCC2)n(O)c(=O)c1 [Ciclopirox],1.35
20,O=C(O)c1ccc2c(c1)C(=O)c1ccccc1C2=O,0.972
21,O=C(O)CCc1ccc(O)cc1O [Hydroumbellic acid],1.06
22,CNC(=O)c1ccccc1Nc1nc(Nc2ccc3c(c2OC)CCC[C@H](N2CCN(CCO)CC2)C3)ncc1Cl,0.607
23,CCc1cncnc1N1CCN(Cc2nc3ccc(C(F)(F)F)cc3[nH]2)CC1,1.06
24,COc1ccc2ccc(=O)oc2c1 [Herniarin],1.1
25,CCOc1cc([C@@H](CS(C)(=O)=O)N2C(=O)c3cccc(NC(C)=O)c3C2=O)ccc1OC [Apremilast],1.12
26,"COc1cc(/C=C/C(=O)OC[C@H]2O[C@H](O[C@]3(CO)O[C@H](CO)[C@@H](O)[C@@H]3OC(=O)/C=C/c3cc(OC)c(O)c(OC)c3)[C@H](O)[C@@H](O)[C@@H]2O)cc(OC)c1O [3,6'-Disinapoyl sucrose]",0.963
